Measured values reported in PubChem BioAssay AID686979 (National Center for Advancing Translational Sciences (NCATS), 2013).
Out of some 420,000 compounds screened, about 50,000 (12%) were called active. The inconclusive results got no clear call from the source; some entries with a clear call stand among them for comparison. The call rests on the fitted dose curve; in most records, active means well fitted inhibition curve with a large enough effect; inconclusive means small, poorly fitted or top-dose-only effect; inactive means flat fitted curve, though single readings scatter. Potencies of inconclusive entries are left out as doubtful fits.

Assay: qHTS for Inhibitors of human tyrosyl-DNA phosphodiesterase 1 (TDP1): qHTS in cells in presence of CPT; further: nearly all actives have a fitted effect of over 55% in size
Details: chicken DT40 Tdp1-/-;hTDP1 cells + 20 nM CPT, ATP luminescence, 48 h; series mostly up to 46.2 µM
Method in brief: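 Chicken DT40 Tdp1-/- cells stably complemented with human TDP1 were seeded at 400 cells/well in medium containing 20 nM camptothecin, exposed to pin-transferred compounds, and grown at 37 °C for at least 48 hr. Viability was read as ATP luminescence.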
Potency means the concentration at half of the fitted maximal effect; tags describe the fitted curve by direction and shape.

SMILES	Potency
Cc1oc(-c2cccc(Cl)c2)[n+]([O-])c1C	inconclusive [inhibitor, partial curve]
COc1ccccc1C1CC(c2ccc(NS(C)(=O)=O)cc2)=NN1S(=O)(=O)c1ccccc1 (stereo unspecified)	inactive
CCOC(=O)C1=C(N)Oc2cc(O)ccc2C1c1ccccc1 (stereo unspecified)	inconclusive [inhibitor, single point]
O=C(Nc1cccc2c(=O)[nH][nH]c(=O)c12)c1ccc([N+](=O)[O-])cc1	active: 8.2 µM
O=C(CN1C(=O)c2cccc3cccc1c23)N1CCN(c2ccc(F)cc2)CC1	inconclusive [inhibitor, partial curve, poor fit]
Cc1ccc(-c2nc3sccn3c2Nc2ccccc2C)cc1	inconclusive [inhibitor, single point]
CC(/C=C1\SC(=S)N(c2ccc(C(=O)O)cc2)C1=O)=C\c1ccccc1	inconclusive [inhibitor, single point]
COc1cccc(CNC(=O)CN2C(=O)CSc3ccc(S(=O)(=O)N(C)C)cc32)c1	inconclusive [inhibitor, single point]
O=c1c(O)c(-c2ccccc2)oc2ccc3occc3c12	inactive
Cc1csc(NC(=O)c2cc(=O)[nH]c3ccccc23)n1	inconclusive [inhibitor, single point]
C=CCN(c1ccccc1)S(=O)(=O)c1cccc(C(=O)NCC(c2ccc(OC)cc2)N2CCCCC2)c1 (stereo unspecified)	active: 5.8 µM
COC(=O)[C@]12CCCCC=C1N(Cc1cccc3ccccc13)C(=O)[C@H](CC(=O)NCCc1ccccc1OC)C2	inconclusive [inhibitor, single point]
NC(=S)N/N=C1\CCSc2ccc(Cl)cc21	active: 20.6 µM
CC(C)CNS(=O)(=O)c1ccc(CCC(=O)Nc2ccc3c(c2)OCCO3)cc1	inactive
CCCCCCN1C[C@H](n2cc(C3CC3)nn2)[C@@H](O)C[C@@H]1c1ccc(C)cc1	active: 20.6 µM
O=C(Nc1cccnc1)c1cc(-c2ccc(Br)cc2)nc2ccccc12	inconclusive [inhibitor, single point]
CCC(=O)Nc1ccc(N2CCOCC2)c(S(=O)(=O)Nc2ccc(Cl)cc2)c1	inconclusive [inhibitor, single point]
CC(C)(C)C1CCc2c(sc(NC(=O)c3cccc(Cl)c3)c2C(N)=O)C1 (stereo unspecified)	inactive
Cc1nc(Nc2ccccc2Br)c2nnn(Cc3ccccc3)c2n1	inconclusive [inhibitor, partial curve]
COc1cc(C)nc(Oc2ccc(OCCOc3ccc(C)cc3)nn2)n1	inconclusive [inhibitor, single point]
COc1ccc(CCC(=O)OCC(=O)Nc2c(C)n(C)n(-c3ccccc3)c2=O)cc1	inactive
CC(C)c1nnc(NC(=O)CCC(=O)NC2CCCc3ccccc32)s1 (stereo unspecified)	inconclusive [inhibitor, partial curve, poor fit]
Cc1c(C(=O)OC2CCCC2)[nH]c2c1C(=O)CC(c1ccc(C(C)(C)C)cc1)C2 (stereo unspecified)	active: 18.4 µM

SMILES	Potency
Cn1c(SCC(=O)Nc2ccccc2)nc2ccccc2c1=O	active: 2.91 µM
COc1ccc(/C=N/N2C(=O)CSC2=S)cc1	inconclusive [inhibitor, partial curve, poor fit]
Cc1cc2c(cc3c(SCc4ccc(Cl)cc4)nnc(C)n32)o1	inconclusive [inhibitor, single point]
CC(OC(=O)c1cc(=O)[nH]c2ccccc12)C(=O)Nc1ccccc1F (stereo unspecified)	inactive
COc1ccc(NC(=O)CSc2oc(-c3ccc(C)cc3)nc2S(=O)(=O)c2ccc(C)cc2)c(OC)c1	inactive
CCC(=O)Oc1c(Sc2ccc(Cl)cc2)c(C)nn1C(C)(C)C	inconclusive [inhibitor, single point]
Cc1cc(-c2ccccc2)cc(=O)[nH]1	inactive
c1ccc(COc2ccc(CN3CCN(c4ccccn4)CC3)cc2)cc1	inconclusive [inhibitor, single point]
CC1(C)CC(=O)c2sc(NC(=O)c3ccc4ncsc4c3)nc2C1	inconclusive [inhibitor, single point]
CSCCC(NS(=O)(=O)c1ccc2c(c1)oc(=O)n2C)C(=O)N1CCN(c2cc(Cl)ccc2C)CC1 (stereo unspecified)	inconclusive [inhibitor, single point]
S=c1[nH]ccn1-c1ccc(Cl)cc1	inconclusive [inhibitor, single point]
CCOC(=O)Cc1ccc(Nc2nc(NCc3cccs3)nc3ccsc23)cc1	active: 20.6 µM
COc1ccc(-c2nc(CSCC(=O)NCCCN3CCCC3=O)c(C)o2)cc1	inactive
COc1ccc(C(=O)c2ccc([N+](=O)[O-])cc2)cc1S(=O)(=O)N1CCC(C(=O)O)CC1	inactive
CN(Cc1cccnc1)Cc1cn(C)nc1-c1ccc(Oc2ccccc2)cc1	inconclusive [inhibitor, single point]
O=C(CC(SCCO)c1ccc2c(c1)OCO2)c1cccs1 (stereo unspecified)	active: 11.6 µM
Nc1nc(NCCO)nc(NC2CCCCC2)c1[N+](=O)[O-]	inconclusive [inhibitor, single point]
CCN(CC(=O)Nc1ccc(NC(C)=O)cc1)C(=O)Cc1cccc2ccccc12	inactive
CC1CN(CCc2ccccc2)c2nc3c(c(=O)[nH]c(=O)n3C)n2C1 (stereo unspecified)	inconclusive [inhibitor, single point]
COc1ccc(NC(=O)C2CCN(c3cc(-c4ccccc4)nc4ncnn34)CC2)cc1OC	active: 18.4 µM
CCCN(CCC)Cc1cc(=O)oc2cc(C)cc(C)c12	inconclusive [inhibitor, single point]
CCN1CCN(Cc2c(O)ccc3oc(C)c(C(=O)Nc4ccc(OC)c(Cl)c4)c23)CC1	active: 23.1 µM
COCCn1c(=O)c(-c2cc(F)cc(F)c2)nc2cnc(N(C)C)nc21	inactive
